# From the supplement of paper PMC8728848
# The list shows a part of the results.
# Key:
# Test in all cases: glycan array binding signal (z-score within array); higher = stronger binding
# Details in all cases: glycan notation: IUPAC condensed, linker removed
# [1] = target: GlcNAc(b1-2)Gal(b1-3)GalNAc
# Method in brief: (§1)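 Arrays were curated from the Consortium for Functional Glycomics database, 3228 in total, and kept only where the protein sequence was available. Binding is expressed as a within-array Z-score. This score was averaged across arrays of the same protein sequence at different concentrations or buffers and across linkers, and negative values can be read as non-binding.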
# [2] = target: GlcNAc(b1-2)Man(a1-3)[GlcNAc(b1-2)Man(a1-6)]Man(b1-4)GlcNAc(b1-4)GlcNAc
# Method in brief: as §1
# [3] = target: GlcNAc(b1-2)Man(a1-3)[GlcNAc(b1-2)Man(a1-6)]Man(b1-4)GlcNAc(b1-4)[Fuc(a1-6)]GlcNAc
# Method in brief: as §1
# [4] = target: GlcNAc(b1-2)Man(a1-3)[GlcNAc(b1-4)][GlcNAc(b1-2)Man(a1-6)]Man(b1-4)GlcNAc(b1-4)GlcNAc
# Method in brief: as §1
# [5] = target: GlcNAc(b1-2)Man(a1-3)[GlcNAc(b1-4)][GlcNAc(b1-2)Man(a1-6)]Man(b1-4)GlcNAc(b1-4)[Fuc(a1-6)]GlcNAc
# Method in brief: as §1
# [6] = target: GlcNAc(b1-2)[GlcNAc(b1-4)]Man(a1-3)[GlcNAc(b1-2)Man(a1-6)]Man(b1-4)GlcNAc(b1-4)GlcNAc
# Method in brief: as §1
# [7] = target: GlcNAc(b1-2)[GlcNAc(b1-4)]Man(a1-3)[GlcNAc(b1-4)][GlcNAc(b1-2)Man(a1-6)]Man(b1-4)GlcNAc(b1-4)GlcNAc
# Method in brief: as §1
# [8] = target: GlcNAc(b1-2)[GlcNAc(b1-4)]Man(a1-3)[GlcNAc(b1-4)][GlcNAc(b1-2)[GlcNAc(b1-6)]Man(a1-6)]Man(b1-4)GlcNAc(b1-4)GlcNAc
# Method in brief: as §1
# [9] = target: GlcNAc(b1-2)[GlcNAc(b1-4)]Man(a1-3)[GlcNAc(b1-4)][GlcNAc(b1-2)[GlcNAc(b1-6)]Man(a1-6)]Man(b1-4)GlcNAc(b1-4)[Fuc(a1-6)]GlcNAc
# Method in brief: as §1
# [10] = target: GlcNAc(b1-2)[GlcNAc(b1-6)]Man(a1-6)[GlcNAc(b1-2)Man(a1-3)]Man(b1-4)GlcNAc(b1-4)GlcNAc
# Method in brief: as §1
# [11] = target: GlcNAc(b1-2)[GlcNAc(b1-6)]Man(a1-6)[GlcNAc(b1-2)Man(a1-3)]Man(b1-4)GlcNAc(b1-4)[Fuc(a1-6)]GlcNAc
# Method in brief: as §1
# [12] = target: GlcNAc(b1-2)[GlcNAc(b1-6)]Man(a1-6)[GlcNAc(b1-4)][GlcNAc(b1-2)Man(a1-3)]Man(b1-4)GlcNAc(b1-4)GlcNAc
# Method in brief: as §1
# GlcNAc(b1-3)Fuc = target: GlcNAc(b1-3)Fuc
# Method in brief: as §1
# GlcNAc(b1-3)Gal = target: GlcNAc(b1-3)Gal
# Method in brief: as §1
# [13] = target: GlcNAc(b1-3)Gal(b1-3)GalNAc
# Method in brief: as §1
# GlcNAc(b1-3)Gal(b1-4)Glc = target: GlcNAc(b1-3)Gal(b1-4)Glc
# Method in brief: as §1
# [14] = target: GlcNAc(b1-3)Gal(b1-4)GlcNAc
# Method in brief: as §1
# [15] = target: GlcNAc(b1-3)Gal(b1-4)GlcNAc(b1-2)Man(a1-3)[GlcNAc(b1-3)Gal(b1-4)GlcNAc(b1-2)Man(a1-6)]Man(b1-4)GlcNAc(b1-4)GlcNAc
# Method in brief: as §1
# [16] = target: GlcNAc(b1-3)Gal(b1-4)GlcNAc(b1-2)Man(a1-3)[GlcNAc(b1-3)Gal(b1-4)GlcNAc(b1-2)Man(a1-6)]Man(b1-4)GlcNAc(b1-4)[Fuc(a1-6)]GlcNAc
# Method in brief: as §1
# [17] = target: GlcNAc(b1-3)Gal(b1-4)GlcNAc(b1-2)[GlcNAc(b1-3)Gal(b1-4)GlcNAc(b1-6)]Man(a1-6)[GlcNAc(b1-3)Gal(b1-4)GlcNAc(b1-2)Man(a1-3)]Man(b1-4)GlcNAc(b1-4)GlcNAc
# Method in brief: as §1
# [18] = target: GlcNAc(b1-3)Gal(b1-4)GlcNAc(b1-3)Gal(b1-4)GlcNAc
# Method in brief: as §1
# [19] = target: GlcNAc(b1-3)Gal(b1-4)GlcNAc(b1-3)Gal(b1-4)GlcNAc(b1-2)Man(a1-3)[GlcNAc(b1-3)Gal(b1-4)GlcNAc(b1-3)Gal(b1-4)GlcNAc(b1-2)Man(a1-6)]Man(b1-4)GlcNAc(b1-4)GlcNAc
# Method in brief: as §1
binder,measurement,setting,value
Pwp4 (Candida glabrata) (protein) MGSSHHHHHHSSGLVPRGSHMASVGNPITVSNVCSFPKNWHRTAGFRALTARLGIGIQSDSYKELLNYPGTFQLTTQQSSTTKPNFQISGLVGNIYGLTIVPSYLLVELTGYFVPPVSGEYTFSLEGSDDAAIIFIANPSTFKCGHVEDWPTAYDNDVTVTESIHATRTIYMIEGVAYPIRIAYYNGLSLGKLQASFTDPEGVKRVDWNGYIWRYDSCDTCSYV,glycan array binding signal (z-score),[1],2.07
same,glycan array binding signal (z-score),[2],-0.379
same,glycan array binding signal (z-score),[3],-0.464
same,glycan array binding signal (z-score),[4],-0.42
same,glycan array binding signal (z-score),[5],-1
same,glycan array binding signal (z-score),[6],-0.085
same,glycan array binding signal (z-score),[7],0.18
same,glycan array binding signal (z-score),[8],-0.334
same,glycan array binding signal (z-score),[9],0.337
same,glycan array binding signal (z-score),[10],7.51
same,glycan array binding signal (z-score),[11],0.645
same,glycan array binding signal (z-score),[12],-0.459
same,glycan array binding signal (z-score),GlcNAc(b1-3)Fuc,-0.603
same,glycan array binding signal (z-score),GlcNAc(b1-3)Gal,-0.52
same,glycan array binding signal (z-score),[13],-0.481
same,glycan array binding signal (z-score),GlcNAc(b1-3)Gal(b1-4)Glc,-0.768
same,glycan array binding signal (z-score),[14],-0.686
same,glycan array binding signal (z-score),[15],-0.17
same,glycan array binding signal (z-score),[16],1.17
same,glycan array binding signal (z-score),[17],1.21
same,glycan array binding signal (z-score),[18],0.125
same,glycan array binding signal (z-score),[19],2.84
